Test results published in patent US10266544B2, “Aryl substituted aminomethyl spectinomycin analogs as antibacterial agents” (ST. JUDE CHILDREN'S RESEARCH HOSPITAL, INC., priority 2013, dated 2019).
In brackets after ≈: the same amount, converted by molar mass. Several values for one entry are separate records, joined by “and”; a condition that tells them apart may be missing. Equal entries are not always repeated. Structures can show the parent of a compound that is named as a salt.

Molecular target: purified Mycobacterium smegmatis 70S bacterial ribosomes (Mycolicibacterium smegmatis, UniProt A0QSG6)
Sequence (A0QSG6 whole entry): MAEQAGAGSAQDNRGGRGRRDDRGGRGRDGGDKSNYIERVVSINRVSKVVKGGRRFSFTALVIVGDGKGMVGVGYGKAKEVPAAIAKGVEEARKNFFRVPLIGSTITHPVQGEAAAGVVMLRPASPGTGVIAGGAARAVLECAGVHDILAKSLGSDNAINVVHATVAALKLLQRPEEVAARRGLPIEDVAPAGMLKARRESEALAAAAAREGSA
Experiment: biochemical
Protocol: Aryl substituted aminomethyl spectinomycin analogs were synthesized as described above. Ribosomal inhibition (IC50) was determined in the ribosomal inhibition assay as described above and the data are shown in Table 2. The compound number corresponds to the compound numbers used in Table 1.
3′-Methylene aryl substituted aminomethyl spectinomycin analogs were evaluated for potency as ribosomal inhibitors using purified mycobacterial ribosomes, as described previously (Salian, et al. Antimicrob Agents Chemother. 2011 56(12), 6104-6108). […] Without wishing to be bound by a particular theory, the meta position appeared to be less preferred for substitution than para position. Adding a trifluoromethoxy (10) decreased binding by 10-fold. […] Without wishing to be bound by a particular theory, introduction of a nitrogen to the ortho (16) and meta (7) position of non-substituted aryl analog 1 was favorable, decreasing IC50's to 0.4 μg/mL in each case.

Row | SMILES | IC50 (IC50) | also measured
1 | CN[C@@H]1[C@H](O)[C@H](NC)[C@H]2O[C@]3(O)[C@H](O[C@@H]2[C@H]1O)O[C@H](C)C[C@]3(O)CNCc1ccc(OC(F)(F)F)cc1 (stereo in doubt) [compound 26, 3′-(S)-3′-[(4-trifluoromethoxyl)benzylaminomethyl)]dihydrospectinomycin Trihydrochloride] | 37500 nM | 
2 | CN[C@@H]1[C@H](O)[C@H](NC)[C@H]2O[C@@]3(O)C(=O)C[C@@H](C)O[C@H]3O[C@@H]2[C@H]1O [SPC, (2R,4aR,5aR,6S,7S,8R,9S,9aR,10aS)-4a,7,9-trihydroxy-2-methyl-6,8-bis(methylamino)decahydro-4H-benzo[b]pyrano[2,3-e][1,4]dioxin-4-one, reference compound] |  | IC50 (Sm) ([…]): 0.36 µg/mL (≈ 1.08 µM); IC50 (luciferase-based protein synthesis inhibition assay, purified Mycobacterium smegmatis ribosomes): 0.39 µg/mL
3 | CN[C@@H]1[C@H](O)[C@H](NC)[C@H]2O[C@]3(O)[C@H](O[C@@H]2[C@H]1O)O[C@H](C)C[C@@]3(O)CNCc1ccccc1 [compound 1, 3′-(R)-3′-(benzylaminomethyl)dihydrospectinomycin Trihydrochloride] | 1920 nM | 
4 | CN[C@@H]1[C@H](O)[C@H](NC)[C@H]2O[C@]3(O)[C@H](O[C@@H]2[C@H]1O)O[C@H](C)C[C@@]3(O)CNCc1ccc(F)cc1 [compound 2, 3′-(R)-3′-[(4-fluoro)benzylaminomethyl)]dihydrospectinomycin Trihydrochloride] | 1570 nM | change of ribosomal inhibitory potency on fluorination of the aryl ring: slight loss of potency
5 | CCc1ccc(CNC[C@]2(O)C[C@@H](C)O[C@H]3O[C@@H]4[C@@H](O)[C@H](NC)[C@H](O)[C@H](NC)[C@H]4O[C@]32O)cc1 [compound 3, 3′-(R)-3′-[(4-ethyl)benzylaminomethyl)]dihydrospectinomycin Trihydrochloride] | 498 nM | 
6 | CCOc1ccc(CNC[C@]2(O)C[C@@H](C)O[C@H]3O[C@@H]4[C@@H](O)[C@H](NC)[C@H](O)[C@H](NC)[C@H]4O[C@]32O)cc1 [compound 4, 3′-(R)-3′-[(4-ethoxyl)benzylaminomethyl)]dihydrospectinomycin Trihydrochloride] | 1450 nM | 
7 | CN[C@@H]1[C@H](O)[C@H](NC)[C@H]2O[C@]3(O)[C@H](O[C@@H]2[C@H]1O)O[C@H](C)C[C@@]3(O)CNCc1ccc(C(F)(F)F)cc1 [compound 5, 3′-(R)-3′-[(4-trifluoromethyl)benzylaminomethyl)]dihydrospectinomycin Trihydrochloride] | 1670 nM | 
8 | CN[C@@H]1[C@H](O)[C@H](NC)[C@H]2O[C@]3(O)[C@H](O[C@@H]2[C@H]1O)O[C@H](C)C[C@@]3(O)CNCCc1ccccc1 [compound 6, 3′-(R)-3′-(phenethylaminomethyl)dihydrospectinomycin Trihydrochloride] | 492 nM | 
9 | CN[C@@H]1[C@H](O)[C@H](NC)[C@H]2O[C@]3(O)[C@H](O[C@@H]2[C@H]1O)O[C@H](C)C[C@@]3(O)CNCc1cccnc1 [compound 7, 3′-(R)-3′-(3-pyridinylmethylaminomethyl)dihydrospectinomycin Tetrahydrobromide] | 880 nM and 902 nM | 
10 | CN[C@@H]1[C@H](O)[C@H](NC)[C@H]2O[C@]3(O)[C@H](O[C@@H]2[C@H]1O)O[C@H](C)C[C@@]3(O)CNCc1ccco1 [compound 8, 3′-(R)-3′-(2-furanylmethylaminomethyl)dihydrospectinomycin Trihydrochloride] | 902 nM | 
11 | CN[C@@H]1[C@H](O)[C@H](NC)[C@H]2O[C@]3(O)[C@H](O[C@@H]2[C@H]1O)O[C@H](C)C[C@@]3(O)CNCc1ccncc1 [compound 9, 3′-(R)-3′-(4-pyridinylmethylaminomethyl)dihydrospectinomycin Tetrahydrobromide] | 1580 nM | 
12 | CN[C@@H]1[C@H](O)[C@H](NC)[C@H]2O[C@]3(O)[C@H](O[C@@H]2[C@H]1O)O[C@H](C)C[C@@]3(O)CNCc1ccccc1OC(F)(F)F [compound 10, Trihydrochloride] | 17800 nM | decrease in binding: 10 fold
13 | CN[C@@H]1[C@H](O)[C@H](NC)[C@H]2O[C@]3(O)[C@H](O[C@@H]2[C@H]1O)O[C@H](C)C[C@@]3(O)CNCc1ccc(OC(F)(F)F)cc1 [compound 11, 3′-(R)-3′-[(4-trifluoromethoxyl)benzylaminomethyl)]dihydrospectinomycin Trihydrochloride] | 2140 nM | 
14 | CN[C@@H]1[C@H](O)[C@H](NC)[C@H]2O[C@]3(O)[C@H](O[C@@H]2[C@H]1O)O[C@H](C)C[C@@]3(O)CNCc1ccc(F)c(F)c1 [compound 12, 3′-(R)-3′-[(3,4-difluoro)benzylaminomethyl)]dihydrospectinomycin Trihydrochloride] | 4270 nM | 
15 | CN[C@@H]1[C@H](O)[C@H](NC)[C@H]2O[C@]3(O)[C@H](O[C@@H]2[C@H]1O)O[C@H](C)C[C@@]3(O)CNCCCc1ccccc1 [compound 13, 3′-(R)-3′-(phenylpropylaminomethyl)dihydrospectinomycin Trihydrochloride] | 519 nM | 
16 | CN[C@@H]1[C@H](O)[C@H](NC)[C@H]2O[C@]3(O)[C@H](O[C@@H]2[C@H]1O)O[C@H](C)C[C@@]3(O)CNCc1ccccc1F [compound 14, 3′-(R)-3′-[(2-fluoro)benzylaminomethyl)]dihydrospectinomycin Trihydrochloride] | 1510 nM | change of ribosomal inhibitory potency on fluorination of the aryl ring: slight loss of potency
17 | CN[C@@H]1[C@H](O)[C@H](NC)[C@H]2O[C@]3(O)[C@H](O[C@@H]2[C@H]1O)O[C@H](C)C[C@@]3(O)CNCc1cccc(F)c1 [compound 15, 3′-(R)-3′-[(3-fluoro)benzylaminomethyl)]dihydrospectinomycin Trihydrochloride] | 2210 nM | change of ribosomal inhibitory potency on fluorination of the aryl ring: slight loss of potency
18 | CN[C@@H]1[C@H](O)[C@H](NC)[C@H]2O[C@]3(O)[C@H](O[C@@H]2[C@H]1O)O[C@H](C)C[C@@]3(O)CNCc1ccccn1 [compound 16, 3′-(R)-3′-(2-pyridinylmethylaminomethyl)dihydrospectinomycin Tetrahydrobromide] | 880 nM and 968 nM | 
19 | CN[C@@H]1[C@H](O)[C@H](NC)[C@H]2O[C@]3(O)[C@H](O[C@@H]2[C@H]1O)O[C@H](C)C[C@@]3(O)CNCc1cccs1 [compound 17, 3′-(R)-3′-(2-thiophenylmethylaminomethyl)dihydrospectinomycin Trihydrochloride] | 849 nM | 
20 | CN[C@@H]1[C@H](O)[C@H](NC)[C@H]2O[C@]3(O)[C@H](O[C@@H]2[C@H]1O)O[C@H](C)C[C@@]3(O)CNCc1ccc(Cl)cc1 [compound 18, 3′-(R)-3′-(4-Chlorobenzylaminomethyl)dihydrospectinomycin Trihydrobromide] | 697 nM | 
21 | CN[C@@H]1[C@H](O)[C@H](NC)[C@H]2O[C@]3(O)[C@H](O[C@@H]2[C@H]1O)O[C@H](C)C[C@@]3(O)CNCc1nccs1 [compound 19, 3′-(R)-3′-(2-thiazolylmethyl)aminomethyldihydrospectinomycin Tetrahydrobromide] | 1170 nM | 
22 | CN[C@@H]1[C@H](O)[C@H](NC)[C@H]2O[C@]3(O)[C@H](O[C@@H]2[C@H]1O)O[C@H](C)C[C@@]3(O)CNCc1cnc[nH]1 [compound 20] | 564 nM | 
23 | CN[C@@H]1[C@H](O)[C@H](NC)[C@H]2O[C@]3(O)[C@H](O[C@@H]2[C@H]1O)O[C@H](C)C[C@@]3(O)CNCc1ccc(Cl)s1 [compound 21, 3′-(A′)-3′-[(5-Chloro)-2-thiophenylmethylaminomethyl)dihydrospectinomycin Trihydrobromide] | 810 nM | 
24 | CN[C@@H]1[C@H](O)[C@H](NC)[C@H]2O[C@]3(O)[C@H](O[C@@H]2[C@H]1O)O[C@H](C)C[C@@]3(O)CNCc1cccc(C)n1 [compound 22, 3′-(A)-3′-[(6-Methyl)-2-pyridinylmethylamino)dihydrospectinomycin Tetrahydrobromide] | 918 nM | 
25 | CN[C@@H]1[C@H](O)[C@H](NC)[C@H]2O[C@]3(O)[C@H](O[C@@H]2[C@H]1O)O[C@H](C)C[C@]3(O)CNCc1ccc(F)cc1 [compound 28, 3′-(S)-3′-[(4-fluoro)benzylaminomethyl)]dihydrospectinomycin Trihydrochloride] | 35200 nM | 
26 | CN[C@@H]1[C@H](O)[C@H](NC)[C@H]2O[C@]3(O)[C@H](O[C@@H]2[C@H]1O)O[C@H](C)C[C@@]3(O)CNCCc1ccc(C)cc1 [compound 32, 3′-(R)-3′-[(4-Methyl)]Phenethylaminomethyl)]Dihydrospectinomycin Trihydrochloride] |  | IC50 (IC50 (Sm)): 1020 nM
27 | CN[C@@H]1[C@H](O)[C@H](NC)[C@H]2O[C@]3(O)[C@H](O[C@@H]2[C@H]1O)O[C@H](C)C[C@@]3(O)CNCCN1CCOCC1 [compound 51, 3′-(R)-3′-[(2-morpholinoethyl)aminomethyl]dihydrospectinomycin tetrahydrochloride] | 797 nM | IC50 (IC50 (Sm)): 797 nM
28 | CN[C@@H]1[C@H](O)[C@H](NC)[C@H]2O[C@]3(O)[C@H](O[C@@H]2[C@H]1O)O[C@H](C)C[C@@]3(O)CNCCC1CCOCC1 [compound 52, 3′-(R)-3′-[(2-(tetrahydro-2H-pyran-4-yl)ethyl)aminomethyl]dihydrospectinomycin Trihydrochloride] | 715 nM | IC50 (IC50 (Sm)): 715 nM
